From PubChem BioAssay AID624417 (National Center for Advancing Translational Sciences (NCATS), 2012)
In all, about 410,000 compounds went through this assay and about 6,400 (1.6%) were called active. Inconclusive results, whose numbers are uncertain, are shown with a selection of clear calls. The call rests on the fitted dose curve; in most records, active means well fitted inhibition curve with a large enough effect; inconclusive means small, poorly fitted or top-dose-only effect; inactive means no such curve, though single readings can be large or run the other way. Potencies of inconclusive entries are left out as doubtful fits.

Target: Glucagon-like peptide 1 receptor (Homo sapiens) (UniProt P43220)
Sequence of UniProt P43220 (P43220 whole entry, looked up): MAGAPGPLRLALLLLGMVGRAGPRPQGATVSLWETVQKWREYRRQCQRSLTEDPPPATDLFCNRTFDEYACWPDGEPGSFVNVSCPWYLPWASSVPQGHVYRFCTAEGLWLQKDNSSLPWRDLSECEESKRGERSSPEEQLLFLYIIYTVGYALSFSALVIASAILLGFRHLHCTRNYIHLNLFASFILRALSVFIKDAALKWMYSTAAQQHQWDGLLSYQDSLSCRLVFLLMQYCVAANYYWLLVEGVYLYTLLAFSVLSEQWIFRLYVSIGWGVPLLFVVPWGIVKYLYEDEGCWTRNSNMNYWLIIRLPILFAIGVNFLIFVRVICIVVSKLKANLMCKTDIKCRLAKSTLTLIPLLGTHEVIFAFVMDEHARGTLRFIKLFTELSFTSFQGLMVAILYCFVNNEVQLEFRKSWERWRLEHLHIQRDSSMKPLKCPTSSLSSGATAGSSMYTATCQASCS
Assay: qHTS of GLP-1 Receptor Inverse Agonists (Inhibition Mode); further: nearly all actives have a fitted effect of over 55% in size
Settings: HEK293 GLP-1R CRE-luciferase, luminescence, 24 h, GLP-1R form is constitutively active; activity change, negative = inhibition: at 38.3 µM (top of the series) unless noted
Summary of the method: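 GLP-1R inverse agonism mode: basal reporter luminescence in engineered HEK293 cells measured after one day of compound exposure at 37 deg C, with a 12 min room-temperature detection step.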
On the % scale 0 is the no-effect control and ±100 the full control effect; potency means the concentration at half of the fitted maximal effect; tags describe the fitted curve by direction and shape.

Structure (SMILES)	Potency	activity change, negative = inhibition
CC(C(=O)Nc1ccc(C(F)(F)F)cc1)N(C)CC(=O)N1CCN(Cc2ccccc2)CC1 (stereo not drawn)	inconclusive [inhibitor, partial curve, poor fit]	–
O=C(Nc1nc2cc3c(cc2s1)OCO3)c1ccco1	inconclusive [inhibitor, partial curve, poor fit]	–
O=C(CN1C=NS(=O)(=O)c2ccccc21)Nc1ccc(Br)cc1	inactive	–
CCC(C)(C)NC(=O)C(c1ccccc1F)N(Cc1ccco1)C(=O)Cn1nnc2ccccc21 (stereo not drawn)	inconclusive [inhibitor, single point]	–
COc1ccccc1NS(=O)(=O)c1ccc2oc(SCc3ccc(C#N)cc3)nc2c1	inconclusive [inhibitor, single point]	–
COc1ccc(NC(=O)CSC2=Nc3ccccc3C3=NC(Cc4ccccc4)C(=O)N23)cc1 (stereo not drawn)	inactive	–
Cn1cc(CNCc2ccc(OC(F)(F)F)cc2)c(-c2ccc3c(c2)OCCO3)n1	inconclusive [inhibitor, partial curve, poor fit]	–
O=S(=O)(c1ccccc1)c1cccc(S(=O)(=O)N2CCCCC2)c1	inconclusive [inhibitor, single point]	–
COc1ccc(-c2nc(NC(=O)C3CC(=O)N(c4ccc5c(c4)OCCO5)C3)sc2C)cc1 (stereo not drawn)	inconclusive [inhibitor, full curve, poor fit]	–
c1ccc2c(c1)[nH]c1c(N3CCCC3)ncnc12	inactive	–
Cc1cc(C(=O)NCCCC(=O)O)c(C)o1	inactive	–
Cc1ccccc1N1CCN(C(=O)c2cc(C3CC3)nn2-c2ccccc2)CC1	inconclusive [inhibitor, partial curve, poor fit]	–
CC(CC(=O)Nc1nc2ccccc2[nH]1)c1ccccc1 (stereo not drawn)	inconclusive [inhibitor, single point]	–
Cc1ccc(Nc2c(-c3ccco3)nc3ccc(C)cn23)cc1	inactive	–
Cc1ccc(NS(=O)(=O)c2ccccc2)c2c1CC(C)(C)O2	inconclusive [inhibitor, partial curve, poor fit]	–
CCc1ccc2nc(N=C(N)N)nc(C)c2c1	inconclusive [inhibitor, single point]	–
OC[C@@H]1CN(Cc2cccc3ccccc23)C[C@H](n2cnc3c(NCc4ccco4)ncnc32)O1	inconclusive [inhibitor, single point]	–
Cc1ccc(N/C=C(\[N+](=O)[O-])S(=O)(=O)c2ccccc2)cc1	–	inactive: -8.18% [at 7.66 µM]
N#Cc1cc(-c2ccccc2)[nH]c1-c1nccc2ccccc12	inconclusive [inhibitor, partial curve, poor fit]	–
Cc1cccc(C)c1N1CCN(S(=O)(=O)N2CCOCC2)CC1	inactive	–
CC(C)c1ccc(S(=O)(=O)N2CCN(CC(=O)Nc3ccc4c(c3)OCO4)CC2)cc1	inconclusive [inhibitor, single point]	–

Structure (SMILES)	Potency	activity change, negative = inhibition
COc1ccc(CC(=O)Nc2c(C(=O)N3CCN(c4ccccc4F)CC3)oc3ccccc23)cc1OC	inconclusive [inhibitor, single point]	–
CC(C)CC(=O)Nc1nc2ccc(S(C)(=O)=O)cc2s1	inactive	–
Cc1ccc(O)c(NC2=C(Cl)C(=O)N(Cc3ccccc3)C2=O)c1	inconclusive [inhibitor, partial curve, poor fit]	–
COc1ccc(C(=O)NN(C)c2nc(-c3ccccc3)cc(C)c2S(C)(=O)=O)cc1	inconclusive [inhibitor, partial curve]	–
C(=C\c1ccccc1)/CN1CCN(C(c2cccs2)c2nnnn2Cc2ccccc2)CC1 (stereo not drawn)	inconclusive [inhibitor, single point]	–
O=C(C[C@H]1C[C@H](C(=O)N2CCOCC2)[C@@]2(CCC3CCCC3)c3[nH]c4cc(-c5ccco5)ccc4c3CCN2C1=O)NCCN1CCOCC1	inconclusive [inhibitor, single point]	–
CCn1c2c(c3ccc(OC)cc31)CCCC2=O	inconclusive [inhibitor, full curve, poor fit]	–
CCCCCOCC1CC(C/C(C)=N/NC(N)=S)C(=O)O1 (stereo not drawn)	inconclusive [inhibitor, partial curve, poor fit]	–
CCOc1ccc(-n2ccnc2SCC(=O)NCc2ccc3c(c2)OCO3)cc1	inconclusive [inhibitor, single point]	–
COc1ccc(-n2nnnc2C2CCN(S(=O)(=O)c3cc(Cl)ccc3OC)CC2)cc1	inconclusive [inhibitor, partial curve, poor fit]	–
CC(C)CNC(=O)NC(=O)CSc1nc2ccccc2n1CC(C)C	inconclusive [inhibitor, single point]	–
CN1C(=O)[C@H]2[C@@H](c3ccc(C(F)(F)F)cc3)N[C@]3(CCCN(Cc4ccc(Cl)cc4)C3=O)[C@H]2C1=O	active: 11.2 µM	–
CCc1ccc(C(C(=O)NC2CCCC2)N(C(=O)c2csnn2)C2CC2)cc1 (stereo not drawn)	inconclusive [inhibitor, single point]	–
O=[N+]([O-])c1cc(/C=N/N2CCN(c3ccccc3)CC2)ccc1Cl	inactive	–
CC(C)(C)c1ccc(CC(=O)N2CCC2(C)C(=O)N2CCCCC2)cc1 (stereo not drawn)	inconclusive [inhibitor, single point]	–
C/C(CC(=O)Nc1ccc(C)c(Cl)c1)=N\NC(=O)c1ccccn1	inconclusive [inhibitor, single point]	–
Cc1ccccc1OCC(=O)Nc1cccc(NC(=O)c2ccco2)c1	inconclusive [inhibitor, single point]	–
COc1ccc(Cn2nnnc2CN2CCc3ccccc3C2)cc1	inconclusive [inhibitor, partial curve, poor fit]	–
COc1ccc(OC)c(NC(=O)Nc2cccc(OCc3cc(=O)n4cc(C)ccc4n3)c2)c1	inactive	–
C=CCN(CC=C)C(=S)NC(=O)c1ccc(-c2ccccc2)cc1	inconclusive [inhibitor, partial curve, poor fit]	–
COc1ccccc1/C=C/CN1CCC(Oc2ccc(C(=O)N3CCCCC3)cc2)CC1	inconclusive [inhibitor, partial curve, poor fit]	–

Structure (SMILES)	Potency	activity change, negative = inhibition
Cc1cccc(COCC(Cc2ccccc2)N2CCN(C(=O)c3cccc(C)c3)CCC2=O)c1 (stereo not drawn)	inconclusive [inhibitor, partial curve, poor fit]	–
O=C(Nc1nnc(-c2ccccc2)o1)NC1CCCCC1	inconclusive [inhibitor, single point]	–
COc1cccc(Nc2nc(-c3cccs3)nc3ccccc23)c1	active: 11.2 µM	–
COc1ccc(-c2nc(SCC(=O)NCc3nc4ccccc4n3C)n3[nH]c(=O)cc3n2)cc1	inactive	–
O=C(CCc1nnc(CCCCc2ccccc2)o1)NC1CCCC1	inconclusive [inhibitor, single point]	–
CCCCN1C(=O)C(NC(=O)c2ccc(C(C)(C)C)cc2)(C(F)(F)F)C(C(=O)OC)=C1C (stereo not drawn)	inconclusive [inhibitor, partial curve, poor fit]	–
COc1ccc(/C=C/c2noc(-c3ccccc3OC(C)=O)n2)cc1	inconclusive [inhibitor, single point]	–
COc1cccc(/C=N/NC(=O)N/N=C/c2cccc(OC)c2O)c1O	inconclusive [inhibitor, full curve]	–
CCOC(=O)C1=CCN(S(=O)(=O)c2cccc(Cl)c2)C1c1ccc(C)cc1 (stereo not drawn)	inconclusive [inhibitor, single point]	–
c1ccc(OCCOCCN2CCc3ccccc3C2)cc1	inconclusive [inhibitor, partial curve]	–
Cc1cc(O)c(C(c2ccc(F)cc2)N2CCN(c3ccccc3)CC2)c(=O)n1Cc1ccco1 (stereo not drawn)	inconclusive [inhibitor, single point]	–
COc1ccccc1NC(=O)Cn1c2ccccc2c2nc3n(c(=O)c21)CCS3	–	inactive: -1.29% [at 0.307 µM]
COC(=O)C1=C(C)NC(C)=C(C(=O)OCC2CCCO2)C1c1cccc(Br)c1 (stereo not drawn)	inconclusive [inhibitor, partial curve]	–
O=C(CCS(=O)(=O)c1ccc(F)cc1)Nc1nnc(-c2ccc(F)cc2)o1	inactive	–
COc1ccc(C2(CNC(=O)C(=O)Nc3ccc(C)c(Cl)c3)CCCC2)cc1OC	inactive	–
COc1c(C)c2c(c(O)c1C/C=C(\C)CCC(=O)O)C(=O)OC2	inconclusive [inhibitor, full curve, poor fit]	–
CCN1CCN(c2oc(-c3ccc(COc4ccc(OC)cc4)o3)nc2C#N)CC1	inactive	–
CC(=O)c1ccc(N2C(=O)N(Cc3ccc(F)cc3)c3ccccc3S2(=O)=O)cc1	inconclusive [inhibitor, single point]	–
C/C=C1\COC(C(=O)NCc2ccccc2)(C(F)(F)F)C=C1C=C1CCCCC1 (stereo not drawn)	inconclusive [inhibitor, partial curve, poor fit]	–
CCN(CC)c1ccc(NC(=O)Cn2cc3c(n2)CCC(C)C3)c(C)c1 (stereo not drawn)	inconclusive [inhibitor, single point]	–
COc1ccc(OCC(=O)Nc2ccc(S(=O)(=O)N(C)c3ccccc3)cc2)cc1	inconclusive [inhibitor, partial curve, poor fit]	–
